Test results published in the RNAGym collection of RNA variant scans (doi:10.1093/nar/gkz1192).
Read counts are not given, so values of variants with three or more changes are uncertain.

B1: CPEB3 Ribozyme (parent)
chain: UAACAGGGGGCCACAGCAGAAGCGUUCACGUCGCAGCCCCUGUCAGAUUCUGGUGAAUCUGCGAAUUCUGCUGUAUAUCUC

Variants of: B1
Assay: self-cleavage, relative activity (ratio to wild type); higher = more cleavage; in vitro, sequencing
In short: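 Relative activity was defined as the cleaved/total read fraction for a variant divided by the same fraction for the unmutated ribozyme. CPEB3 self-cleaving ribozyme libraries were made by rounds of error-prone PCR, barcoded, and transcribed in vitro with T7 RNA polymerase for 5 hours at 37°C, and cleavage ran through transcription plus a 15 min DNase I step before EDTA. Illumina sequencing of template-switched reverse transcripts gave the reads, and DNA sequencing mapped the barcodes. Averages come from three batches, using variants with at least 5 reads.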

Row | Variant | self-cleavage
1 | A21G U76A A77G | 0.72
2 | A21G C34G A35G A56G | 0.06
3 | A21U U25C A28G C38U U54A | 0.05
4 | A21G U25C A75G U80C | 0.4
5 | A21U U41C A45C U51C A57G U67G | 0
6 | A21U U49A U51C A56G | 0.31
7 | A21G U41C U54C A56G | 0.1
8 | A21U A45G U58C U72C | 0.05
9 | A21U G46A U80C | 0.09
10 | A21G U31G U41A | 0.49
11 | A21U A56G U76C | 0.24
12 | A21C G63A U78C | 0.1
13 | A21G U41C U67G G70C | 0.21
14 | A21G U31G G33A G55U C79U | 0.24
15 | A21G U48C U69C | 0.19
16 | A20U U48C A64G A77G | 0.14
17 | A21U C27G U67C | 0.11
18 | A21U A28U C40A A77G | 0.05
19 | A21G U26A U31C A56U U60C U80A | 0.04
20 | A21U U41A U78A | 0.25
21 | A21G G24A A47U A64G | 0.23
22 | A20U U25C U49C | 0.26
23 | A21U U26C U49C A57G | 0.11
24 | A20U U66A A77U | 0.28

Row | Variant | self-cleavage
25 | A21G A35G U48A G73C U76C U80C | 0.84
26 | A21U A35U U49C U60A U72A | 0.05
27 | A21G A45U U51C | 0.27
28 | A21G U31C A75C | 0.35
29 | A21G A45C G52C A57G A75G | 0.2
30 | A21U A28G U66C | 0.14
31 | A21G C27U G63A | 0.29
32 | A21G A28G A77U | 0.42
33 | A21G A28G U41C | 0.51
34 | A20U U25A U60C U80G | 0.09
35 | A21U A35G U67C | 0.18
36 | A21G U25C U49C G61U C81U | 0.07
37 | A21G C40G U49C U51A U72C | 0.1
38 | A21U U43C A77U | 0.28
39 | A21G U41C U78A | 0.62
40 | A21G G33A C44G U67C | 0.06
41 | A21G A35U A45G | 0.12
42 | A21G G63A U69A U76C | 0.19
43 | A21G C38U U60C U72A | 0.11
44 | A21G U41C A64G | 0.51
45 | A21G U41C A64C | 0.13
46 | A21G C38U A56G | 0.24
47 | A20U U31C C32G C37G U43A A45G U69C | 0.07
48 | A21G A28G G53A U80A | 0.25

Row | Variant | self-cleavage
49 | A21G U49C U58C | 0.32
50 | A21G U25C C40U U41C U43C A64U U72A | 0.08
51 | A21G U25A U41A U74G | 0.24
52 | A21G U41A U66C | 0.32
53 | A21G A28G C44U A64U | 0.12
54 | A21G U51C G53C A56G | 0.64
55 | A21G U31A U78C | 0.3
56 | A21G U25C A35G | 0.36
57 | A20U U25A C71G | 0.13
58 | A21G G24U U49G A56G A57G U67A | 0.03
59 | A21G A28G U58G U60A | 0.1
60 | A21G U51A A56G U74G | 0.44
61 | A21G U25C A56G | 0.18
62 | A21G U31C U51C U78C U80C | 0.12
63 | A21G U31C C38G | 0.4
64 | A21G U31A U60C | 0.1
65 | A20U U25A U74A U76C | 0.35
66 | A21G U58G U66C | 0.3
67 | A21G U51A U72C | 0.6
68 | A21G A28U C39A A45U A56G U60C | 0.07
69 | A21U G52A A57U C79G | 0.34
70 | A21G U31C A56C A64U | 0.08
71 | A21U U25C U26C U69C | 0.08
72 | A21G A56G U60C | 0.31

Row | Variant | self-cleavage
73 | A21G C27U A47U U60C | 0.07
74 | A21G A35U A57U U66C | 0.29
75 | A21U U26C U51A A64G U80C | 0.14
76 | A21G A28U U51A | 0.25
77 | A20U U51C U69A G73A | 0.35
78 | A21G U41A U76C | 0.23
79 | A21G U25C A28C A56G U69A | 0.19
80 | A21C A28G U48C U51A U80C | 0
81 | A20U U26A A28G A35G A57G U67C | 0.09
82 | A21G A28G U72C | 0.28
83 | A20U G55A G63A | 0.23
84 | A21G U25C U69C | 0.05
85 | A21G C50G U60C U72C | 0.17
86 | A21G U41C A56G U58C A64U U72C | 0.15
87 | A21U A28U G36A C68U | 0.16
88 | A21G G22C G33C G55C U74A | 0.11
89 | A21G U41A G53U | 0.22
90 | A21G U41G G53A | 0.07
91 | A21G U26C G53A U67A U69A U72C U78C | 0.03
92 | A21G A45U U78G | 0.16
93 | A20U U31C U43A U67C U69C U72G | 0.07
94 | A21U A28G G53A | 0.11
95 | A21G U43C U78C | 0.66
96 | A20U G33C U41C | 0.19

Row | Variant | self-cleavage
97 | A21G U31G U48C | 0.12
98 | A21G U25A U48C U78A | 0.15
99 | A21G U43A U51C | 0.81
100 | A21G U26C U72C U78A | 0.22
101 | A21U A45U U51C | 0.15
102 | A21G U25C C44U U69A U78C | 0.14
103 | A21U U31A U41A | 0.43
104 | A20U U41C U48C | 0.49
105 | A20U U54C U72C | 0.2
106 | A21U A56U A65G U69C | 0.07
107 | A20U U60C A75G | 0.13
108 | A21G A28G A45U U49C U74A U80C | 0.13
109 | A21G U41A U54C A75G | 0.06
110 | A21G U31C U49A U67A | 0.35
111 | A21C A45U A56U G70A | 0.06
112 | A21U U26A A57G U58C U76A | 0.14
113 | A21G U51A U80A | 0.82
114 | A21G C34U C59U | 0.06
115 | A21U G30A A35G U48C U51G U72C | 0.05
116 | A21G U25C A35G A45G U67C | 0.06
117 | A21G G36C A64G | 0.08
118 | A21U U51A G52A | 0.44
119 | A21G U26A A28G U31C U60A U69C U76C | 0.03
120 | A21G A35C C39U U54C U67C G70C | 0.03

Row | Variant | self-cleavage
121 | A21G U25C U31A C40U A57G G70C U78C | 0.04
122 | A21G G36U U67C | 0.09
123 | A21G U26C U67A | 0.24
124 | A21G U26C U43C G61A U72C | 0.07
125 | A21G A47G U49C U54C | 0.26
126 | A21G U54C U67C U80G | 0.17
127 | A21G U41C A45G A64G A65G | 0.52
128 | A21C U31A A64G U80C | 0.19
129 | A21G A47G U51A | 0.61
130 | A21G A28G A45G U51G G52U G63U U72A | 0.12
131 | A21G A28U C29U A65G | 0.22
132 | A20U U67A U78C | 1.03
133 | A21G U48C C68U U69A U72G | 0.04
134 | A21G U26A U41A U49A | 0.07
135 | A21G A45G U58G | 0.11
136 | A21G U48C G61A | 0.2
137 | A21U G36C U41A G52A | 0.07
138 | A21G U25C C29U A57G U80A | 0.04
139 | A20U U31A C37U | 0.07
140 | A21U A35G C40U U67C G70C | 0.07
141 | A21G U25C A77G | 0.29
142 | A21U C38U U41C U60A | 0.09
143 | A21G U43C U60C | 0.15
144 | A21G C37U G52C | 0.3

Row | Variant | self-cleavage
145 | A21G C32U A47G U49C U72C | 0.18
146 | A21C U26C A35U A56G | 0.11
147 | A21G G73C U78C | 1.23
148 | A21G C23U U31A | 0.07
149 | A21U U41C U76A | 0.41
150 | A21U U41C A45G U49C | 0.09
151 | A20U U51C U54G A57G U60A U72C | 0.12
152 | A20U G52C A64G U69C U74A U80C | 0.15
153 | A21G A28C U41A | 0.26
154 | A21G U43G U49G | 0.07
155 | A21G G22C U66C | 0.19
156 | A21U U41C A45G U48C U54C | 0.28
157 | A21G U43C U48C | 0.09
158 | A21G G53C A64G U74A U78C | 0.65
159 | A21U U25C A45U A77U | 0.07
160 | A20U U69G C79G | 0.13
161 | A21G C40U G42A U67C | 0.34
162 | A21G U54A U66C U74A | 1.26
163 | A20U G36A A47U | 0.08
164 | A21U U31A A47U A57G U67C | 0.07
165 | A21U U41C A45U | 0.37
166 | A21G U58A U67A | 0.09
167 | A20U U31A G61A | 0.11
